Laboratory results from PubChem BioAssay AID488969 (Vanderbilt High Throughput Screening Facility, 2010).
Over roughly 110,000 compounds, “z-score” has its median near -0.1; the highest 2% begin near 2. This is one part of the list. Active and inactive are the calls of the source.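 The calls were made as follows: active = z-score in the third read window above 3 or below -3; inactive = the rest.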

Target: Metabotropic glutamate receptor 8 (Rattus norvegicus) (UniProt P70579)
Test: mGluR8 Gi/Go-coupled signaling modulation – cell-based, rat, thallium flux, HTS, primary screen (AID 488969)
Details: HEK293 rat mGluR8, GIRK (G protein-gated inwardly rectifying potassium channel) thallium flux, FluoZin2; at 10 µM; stronger effect = higher value; submaximal glutamate (EC20) added with thallium

Chain of UniProt P70579 (P70579 whole entry, looked up): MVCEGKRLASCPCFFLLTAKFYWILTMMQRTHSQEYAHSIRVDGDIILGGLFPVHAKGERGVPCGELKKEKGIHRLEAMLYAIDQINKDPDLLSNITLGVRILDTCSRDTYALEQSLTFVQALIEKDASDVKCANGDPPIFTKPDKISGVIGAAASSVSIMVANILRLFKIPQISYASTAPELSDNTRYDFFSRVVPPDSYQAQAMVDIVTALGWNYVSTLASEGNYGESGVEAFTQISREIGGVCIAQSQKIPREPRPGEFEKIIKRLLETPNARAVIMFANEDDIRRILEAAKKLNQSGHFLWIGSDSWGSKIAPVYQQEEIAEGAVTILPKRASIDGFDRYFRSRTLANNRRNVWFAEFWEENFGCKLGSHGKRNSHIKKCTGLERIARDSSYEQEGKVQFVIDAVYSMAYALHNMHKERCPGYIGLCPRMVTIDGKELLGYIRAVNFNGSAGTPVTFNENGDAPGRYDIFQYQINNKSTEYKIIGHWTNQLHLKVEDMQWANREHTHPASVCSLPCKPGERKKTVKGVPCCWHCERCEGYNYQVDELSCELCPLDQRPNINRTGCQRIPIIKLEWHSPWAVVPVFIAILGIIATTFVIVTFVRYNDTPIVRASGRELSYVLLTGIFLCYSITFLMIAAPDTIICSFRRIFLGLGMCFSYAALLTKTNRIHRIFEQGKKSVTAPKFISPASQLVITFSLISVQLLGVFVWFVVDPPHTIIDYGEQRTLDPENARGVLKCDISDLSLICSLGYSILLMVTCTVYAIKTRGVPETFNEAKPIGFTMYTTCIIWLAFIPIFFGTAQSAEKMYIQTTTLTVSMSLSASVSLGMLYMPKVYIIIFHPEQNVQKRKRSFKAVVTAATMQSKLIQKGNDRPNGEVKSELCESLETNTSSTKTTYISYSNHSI

SMILES	z-score
COCc1cc(Sc2ccc(Br)cc2)nc(-c2ccccc2)n1	-0.015
CC(C)c1ccc(S(=O)(=O)N2CCN(C(=S)NCc3ccco3)CC2)cc1	-0.246
Cc1ccc(C(=O)Cn2cnc3ccccc3c2=O)cc1C	0.299
Cc1cc(NC(=O)C23CCC(C)(C(=O)O2)C3(C)C)no1 (stereo unspecified)	-0.23
CCn1cc([N+](=O)[O-])c(C(=O)N2N=C3/C(=C/c4cccs4)CCCC3C2c2cccs2)n1 (stereo unspecified)	-0.066
Clc1ccc(Nc2ccc(NCc3ccccc3)nn2)cc1	-0.287
O=C(Nc1cccc(F)c1)c1coc(=O)c(Br)c1	-0.611
CC(C)(C)C1=C(C#N)C(c2ccncc2)C(C#N)=C(N)O1 (stereo unspecified)	0.014
O=C(CSc1nc(C2CCCCC2)nc2ccccc12)NCc1ccc2c(c1)OCO2	-1.07
Cc1ccc(N2C(N)=NC(N)=NC2(C)C)c(C)c1	-0.263
N#Cc1ccccc1Cn1c(=O)n(C2CCCC2)c(=O)c2ccccc21	-1.01
Cc1cccc(C)c1NC(=O)COC(=O)c1cc(-c2cccnc2)nc2ccccc12	-0.617
COc1ccc(CCNC(=O)CN(C2CCCCC2)S(C)(=O)=O)cc1	0.206
CCOC(=O)c1nnn(CC(=O)Nc2cc(F)ccc2F)c1C(=O)OCC	-0.0535
COc1ccc(C2C(C(=O)Nc3ccccc3)=C(C)N=C3SCC(=O)N32)cc1 (stereo unspecified)	0.243
CCCCNC(=O)c1ccc(NS(=O)(=O)c2ccccc2)cc1	0.944
Cc1ccc(S(=O)(=O)N(C)CC(=O)N2CCCC2)cc1	0.257
O=C(Nc1cccc(-c2cn3ccccc3n2)c1)C1CC1	-0.233
CCOC(=O)c1cnc2c(C)c(Cl)ccc2c1N1CCOCC1	0.028
CCCCN1CCc2[nH]c(=S)[nH]c(=O)c2C1	-0.178
CCOC(=O)Cn1ncc(-c2ccccc2)c1N	0.175
O=C(Nc1ccc2c(c1)OCO2)C1CCN(S(=O)(=O)c2cccs2)CC1	1.49
N#Cc1c(NCCO)nc(NCc2ccccc2)c2c1CCN(Cc1ccccc1)C2	-0.208

SMILES	z-score
COc1ccc(Br)cc1CN(C)C(C)C(=O)Nc1cc([N+](=O)[O-])ccc1OC (stereo unspecified)	-0.119
COc1ccc(-c2[nH]n(-c3ccc([N+](=O)[O-])cc3)c(=O)c2C=NCc2ccc(F)cc2)cc1	0.612
COc1ccccc1NC(=O)c1nnn(CC(=O)Nc2cccc(SC)c2)c1N	1.15
COc1cc(NC(=O)CN2c3cccc4cccc(c34)S2(=O)=O)cc(OC)c1OC	1
O=c1c([N+](=O)[O-])c(N2CCCCCC2)c2ccccc2n1-c1ccccc1	-0.205
C=CCn1c(-c2cccs2)nc2ccccc21	active: 3.14
COc1ccc(-c2cc3ccccc3n2CC(O)CNC(CO)(CO)CO)cc1 (stereo unspecified)	0.348
Cc1c(O)nc(SCC(=O)Nc2ccc3c4c(cccc24)CC3)n(-c2ccc(F)cc2)c1=O	-0.749
Cc1cc(Cl)ccc1Oc1nc(-c2ccc(F)cc2)ccc1C#N	-0.289
CSCc1cc(N(C)C)nc(SCc2ccc(Cl)cc2Cl)n1	-0.0279
CCOC(=O)C1=C(O)c2ccccc2C(=O)/C1=C\c1ccc(C)cc1	1.29
CCCCS(=O)(=O)C1CCS(=O)(=O)C1 (stereo unspecified)	-0.0597
CCCn1c(=N)n(CCOCCOCCn2c(=N)n(CCC)c3ccccc32)c2ccccc21	0.012
Cc1ccc(NC(=O)c2ccncc2)cc1S(=O)(=O)N(C)C	-0.143
CCOC(=O)N1CCN(C(=O)Nc2cccc(Cl)c2)CC1	0.474
Cc1noc(C)c1COc1cccc(C(=O)OCC(=O)NC(=O)c2ccc(OC(F)F)cc2)c1	-0.262
COc1ccc(C(=O)NC(=S)Nc2cc(C)ccn2)cc1[N+](=O)[O-]	0.115
CSCCC(NC(=O)c1ccc(Cl)cc1)C(=O)OCC(=O)c1ccc[nH]1 (stereo unspecified)	0.12
O=C(NC1CCCCC1)C1CCN(S(=O)(=O)c2cccs2)CC1	0.0582
CN(C)S(=O)(=O)c1ccc(C(=O)Nc2cccnc2)cc1	0.829
O=C(COc1ccc(-c2nnco2)cc1)N1CCN(S(=O)(=O)c2ccccc2)CC1	-0.00876
O=C(CC(Cc1ccccc1)c1ccco1)NC1CCCCC1 (stereo unspecified)	-0.295
O=C(c1cc2cc(Br)cc(Br)c2oc1=O)N1CCCc2ccccc21	-0.473

SMILES	z-score
O=C(c1ccc(F)cc1)C1CCN(C(=O)NCc2ccccc2)CC1	0.261
COc1ccc(N/C=C(\C#N)c2ccc(OCCCF)cc2)cc1	-0.144
CC(C)(C)NC(=O)COC(=O)/C=C/c1ccccc1[N+](=O)[O-]	0.706
Cc1cccc(-n2c(SCc3ccc(C#N)cc3)nnc2-c2c[nH]c3ccccc23)c1	-0.436
Cc1ccc(OC(C)C(=O)N2CCCc3ccccc32)cc1 (stereo unspecified)	-0.266
CN(C)c1nc(N)nc(CSc2n[nH]c(-c3ccccc3)n2)n1	-0.00289
CN(C)C(=O)Cn1cnc2c(cnn2-c2ccccc2Cl)c1=O	-0.00226
CCSc1nnc(-c2ccncc2)n1Cc1ccccc1	-0.0653
O=C(Nc1cccc2ccccc12)c1onc2c1CCCC2	-0.185
Cc1ccc(-n2c(-c3ccc(Br)cc3)c[n+]3c2CCc2ccc4cccnc4c2-3)cc1	active: 4.86
CCN1CCN(CC(O)COc2ccc(C(C)=O)cc2)CC1 (stereo unspecified)	0.228
Cc1cc2n(c(=O)c1C#N)CCCN2c1cccc(Cl)c1	0.112
O=C(O)/C=C\C(=O)N1CCc2ccccc21	-0.345
Cc1ccc(C(=O)Nn2cnnc2)cc1[N+](=O)[O-]	-0.159
CCOC(=O)c1oc2ccccc2c1NC(=O)c1ccccc1OC	-0.0477
O=C(NCCN1CCCCC1)/C(=N\O)c1ccccc1	0.457
O=C(CSCc1ccccc1)Nc1cccc(C(=O)Nc2ccccc2C(=O)O)c1	-0.568
COc1ccc(C2C(C(=O)Nc3ccccc3)=C(C)Nc3nc(CCCO)nn32)cc1 (stereo unspecified)	-0.432
O=C(NCCc1ccccc1)N1c2ccccc2Sc2ccccc21	-0.298
O=C(Nc1ccc(Cl)cn1)C1CCCN1S(=O)(=O)c1cccc2ccccc12 (stereo unspecified)	-0.368
CCOc1ccc2nc(NC(=O)/C=C/c3ccc4c(c3)OCO4)sc2c1	-0.409
Cc1cc(=O)oc2cc(Oc3ccc([N+](=O)[O-])cc3C(F)(F)F)ccc12	0.15
COc1ccc(C/C(N)=N/OC(=O)Cc2ccccc2)cc1OC	-0.185

SMILES	z-score
O=c1cc(N2CCc3ccccc3C2)[nH]c(=O)n1-c1ccc(Cl)cc1	-0.272
COc1cccc2[nH]c3c(N4CCCC(C)C4)ncnc3c12 (stereo unspecified)	-0.105
Cc1ccc(C(=O)N/N=C/c2nc3ccccc3n2C)cc1	-0.494
CCc1nc2ccccc2n(CCOCCOCCn2c(=O)c(CC)nc3ccccc32)c1=O	-1.86
N#Cc1ccccc1NC(=O)CSc1nnc(-c2ccc(F)cc2)n1-c1ccccc1	-0.102
COCCCNC(=S)NC1CC2CCCC(C1)N2Cc1cccs1 (stereo unspecified)	-0.0623
CCOC(=O)Cc1csc(NC(=O)CSc2nnnn2-c2ccc(C)cc2C)n1	0.498
O=C(Oc1ccc2c(c1)OCO2)c1cccs1	-0.0608
Cc1ccc(SCc2ccc(C(=O)Nc3ccccc3C(=O)NC(C)C)cc2)cc1	-0.377
Cc1c(C(=O)Nc2ccccc2[N+](=O)[O-])csc1-c1ccccc1	-0.152
CCOC(=O)c1ccccc1NC(=O)CC(C)CC(=O)O (stereo unspecified)	0.0768
COc1ccc(C(=O)NN2C(=O)C3C4C=CC(O4)C3C2=O)cc1 (stereo unspecified)	-0.0264
Cn1c(SCC(=O)c2ccccc2)nnc1-c1ccc(O)cc1	0.0183
Cc1[nH]c2ccc(C(=O)O)cc2c1C	0.917
Brc1ccc(CSc2nccn2-c2ccccc2)cc1	-0.198
Cc1cc2n(n1)C(c1sccc1C)Nc1c(C)cccc1-2 (stereo unspecified)	0.912
CN(CC(=O)Nc1ccc(Cl)cc1)S(=O)(=O)c1cccc2cccnc12	-0.797
Cc1c(C(=O)N/N=C/c2ccccc2)sc(=S)n1C	-0.243
CCN(CC)S(=O)(=O)c1ccc(NC(=O)Cn2c(=O)sc3ccccc32)cc1	-0.718
COc1ccc(NC(=O)C2CCN(S(=O)(=O)c3ccc(OC)c(OC)c3)CC2)cc1	-0.0554
COc1ccc(NC(=O)N2CCn3c2nc2ccccc23)cc1	0.0773
Cc1nn(-c2ccccc2)c(C)c1/C=N/NC(=O)CSc1nc2ccccc2c(=O)n1-c1ccccc1	-2.12
CCOc1ccccc1C(=O)NCC(=O)OCC(=O)N1C(C)CCCC1C (stereo unspecified)	-1.16

SMILES	z-score
Cc1c(NC(=O)C(C)OC(=O)c2cc(Cl)nc(Cl)c2)c(=O)n(-c2ccccc2)n1C (stereo unspecified)	0.0979
Cc1cccc(OCC(=O)Nc2cccc(C(=O)NCC(C)C)c2)c1	-0.265
Cc1cccc(-c2noc(CSc3ccccc3)n2)c1	-0.319
CC(CC(=O)NCc1ccccc1)C1CCCO1 (stereo unspecified)	0.956
CCN(CCCNC(=O)CCNC(=O)Cn1ccc2ccccc2c1=O)c1ccccc1	-0.46
CCC(=O)N1CCc2cc(S(=O)(=O)NC(C(=O)N3CCc4ccccc4C3)C(C)C)ccc21 (stereo unspecified)	-1.08
O=C(CN1CCN(c2cccc(Cl)c2)CC1)N1CCCC1	0.275
CCC(CC)C1C(C#N)=C(N)Oc2n[nH]c(C)c21 (stereo unspecified)	-1.97
O=C(Nc1sc2c(c1C(=O)NCC1CCCO1)CCCC2)c1cccs1 (stereo unspecified)	-0.388
O=C(CCC(=O)N1CCc2ccccc2C1)N1CCN(S(=O)(=O)c2ccccc2)CC1	-0.356
Cc1ccc(NC(=O)COc2ccc(-n3cnnn3)cc2)cc1C	-0.492
CCCCCCCCOC1OC(CO)C(O)C(O)C1NC(C)=O (stereo unspecified)	-0.145
COc1ccccc1NC(=O)c1ccc(NS(=O)(=O)c2cccc3cccnc23)cc1	-0.29
C=CCOc1ccc(CNc2nccs2)cc1	-0.245
O=C(COC(=O)C1CCC1)NCc1ccccc1Cl	0.111
Cc1c(N2C(=O)/C(=C\c3cccc4ccccc34)SC2=S)c(=O)n(-c2ccccc2)n1C	0.63
O=C(Nc1ccc2c(c1)OCO2)C1CC(c2ccc(Cl)cc2)=NO1 (stereo unspecified)	-0.0412
CC1Cc2ccccc2N1S(=O)(=O)c1ccc2c(c1)n(C)c(=O)c(=O)n2C (stereo unspecified)	-0.427
COc1ccccc1S(=O)(=O)Nc1ccc(-c2nnc3n2CCCCC3)cc1	0.00148
